Several values for one entry are separate records, joined by “and”; a condition that tells them apart may be missing. Identical values can stand only once. This list was built around the results that the source calls inconclusive (neither active nor inactive); the mix of calls is not that of the screen. For some assays here: A potency beside an inconclusive call is a rough fit, not a confirmed value. A structure can be active in one record and inactive in another. Activity calls are given as the source filed them. Unless noted, the call rests on the fitted dose curve; in most records, active means well fitted curve in the direction sought with a large enough effect; inconclusive means small, poorly fitted or top-dose-only effect, or another doubt; inactive means no such curve, though single readings can be large; an effect the other way counts as inactive or inconclusive.
Columns and labels:
[1] = Cytometric Cell-Based qHTS for Inhibitors of the mTORC1 Signaling Pathway in MEF (Tsc2-/-, p53-/-) Cells (AID 2660); further: potency means the concentration at half of the fitted maximal effect;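 on activity change, negative = inhibition: Tsc2 and p53 null MEFs carrying empty vector with compound for 24 h; percent of cells above a phospho-rpS6 to PI ratio cutoff in each well; plate controls were DMSO for no effect and rapamycin for full effect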
Procedure, shortened: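 Immunofluorescence qHTS of rpS6 Ser235/236 phosphorylation: MEFs (Tsc2-/-, p53-/-) treated 24 h, 37 C, in DMEM + 10% FBS. Alexa-488 signal normalized to PI count, referenced to rapamycin (7.5 nM) and DMSO; PI cell number recorded for viability.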

[2] = target: D(1A) dopamine receptor (Homo sapiens) (UniProt P21728); test: HTS Assay for Allosteric Agonists of the Human D1 Dopamine Receptor: Primary Screen for Antagonists (AID 488983);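 further: calcium flux response to an EC80 dopamine challenge measured with no-wash dye; potency means the concentration at half of the fitted maximal effect; nearly all actives have a fitted effect of over 65% in size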
UniProt P21728, sequence (P21728 whole entry, looked up): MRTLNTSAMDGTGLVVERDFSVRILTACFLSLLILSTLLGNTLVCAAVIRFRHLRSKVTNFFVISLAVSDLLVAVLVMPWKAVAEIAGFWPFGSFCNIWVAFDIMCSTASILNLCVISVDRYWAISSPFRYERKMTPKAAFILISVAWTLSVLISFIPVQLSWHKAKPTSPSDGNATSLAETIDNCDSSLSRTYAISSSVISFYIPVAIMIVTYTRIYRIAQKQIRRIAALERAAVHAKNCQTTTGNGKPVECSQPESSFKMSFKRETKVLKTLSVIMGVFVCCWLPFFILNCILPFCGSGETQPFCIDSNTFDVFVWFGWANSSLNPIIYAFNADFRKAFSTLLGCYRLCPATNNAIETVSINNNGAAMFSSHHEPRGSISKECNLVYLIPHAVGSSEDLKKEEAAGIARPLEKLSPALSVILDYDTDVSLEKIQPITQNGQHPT
Procedure, shortened: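 Cells are induced with tetracycline and incubated overnight at 30 C, then loaded with calcium dye for 30 to 90 minutes at room temperature. Compound addition is followed by a 180 s read, then an EC80 dopamine addition and another 180 s read.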

[3] = target: Papain (Carica papaya) (UniProt P00784); test: Primary qHTS assay for inhibitors of the protease papain (AID 1645873);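 further: papain turnover of Z-FR-AMC read as the AMC fluorescence gain over 10 min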; further: potency means the concentration at half of the fitted maximal effect; on activity change, negative = inhibition: on the % scale 0 is the no-effect control and ±100 the full control effect
UniProt P00784, sequence (P00784 whole entry, looked up): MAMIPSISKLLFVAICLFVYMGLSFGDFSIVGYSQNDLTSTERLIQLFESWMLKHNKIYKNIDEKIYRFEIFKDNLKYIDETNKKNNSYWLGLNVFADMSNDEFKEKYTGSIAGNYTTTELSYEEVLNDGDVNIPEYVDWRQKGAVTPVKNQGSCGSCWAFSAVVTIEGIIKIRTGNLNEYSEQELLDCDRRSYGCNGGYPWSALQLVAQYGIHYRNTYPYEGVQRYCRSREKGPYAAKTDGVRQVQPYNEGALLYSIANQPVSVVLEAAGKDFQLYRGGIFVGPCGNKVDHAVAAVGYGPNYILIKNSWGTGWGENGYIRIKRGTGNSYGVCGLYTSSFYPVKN

[4] = NFAT Signaling Pathway (AID 444; active means well fitted curve in either direction with a large enough effect, not every such curve was filed as active; inconclusive means small, poorly fitted or top-dose-only effect, or another doubt;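 further: carbachol stimulus at about its EC50 of 1 µM final; on the % scale 0 is the no-effect control and ±100 the full control effect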); settings: Jurkat NFAT-bla M1, carbachol, beta-lactamase ratio, 5 h
Procedure, shortened: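 Read-out: CCF4 FRET ratio (460 nm/530 nm) after 1 h RT dye loading, used for %activity and AC50 from titration series. Cells: Jurkat NFAT-β-lactamase/M1 line, treated with compound plus 1 uM carbachol for 5 h, 37 °C.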

[5] = target: 3',5'-cyclic-AMP phosphodiesterase 4B (Homo sapiens) (UniProt Q07343); test: qHTS Assay for Inhibitors of PDE-IV (AID 607; active means well fitted activation curve with a large enough effect in the main read-out, with a control signal flat, not every such curve was filed as active; inconclusive means small, poorly fitted or top-dose-only effect, or effect the other way, or a change in a side signal; further: potency means the concentration at half of the fitted maximal effect); settings: HEK293 ACTOne CNG channel cells, membrane potential fluorescence; activation (PDE inhibition): at 22.9 µM (top of the series)
UniProt Q07343, sequence (Q07343 whole entry, looked up): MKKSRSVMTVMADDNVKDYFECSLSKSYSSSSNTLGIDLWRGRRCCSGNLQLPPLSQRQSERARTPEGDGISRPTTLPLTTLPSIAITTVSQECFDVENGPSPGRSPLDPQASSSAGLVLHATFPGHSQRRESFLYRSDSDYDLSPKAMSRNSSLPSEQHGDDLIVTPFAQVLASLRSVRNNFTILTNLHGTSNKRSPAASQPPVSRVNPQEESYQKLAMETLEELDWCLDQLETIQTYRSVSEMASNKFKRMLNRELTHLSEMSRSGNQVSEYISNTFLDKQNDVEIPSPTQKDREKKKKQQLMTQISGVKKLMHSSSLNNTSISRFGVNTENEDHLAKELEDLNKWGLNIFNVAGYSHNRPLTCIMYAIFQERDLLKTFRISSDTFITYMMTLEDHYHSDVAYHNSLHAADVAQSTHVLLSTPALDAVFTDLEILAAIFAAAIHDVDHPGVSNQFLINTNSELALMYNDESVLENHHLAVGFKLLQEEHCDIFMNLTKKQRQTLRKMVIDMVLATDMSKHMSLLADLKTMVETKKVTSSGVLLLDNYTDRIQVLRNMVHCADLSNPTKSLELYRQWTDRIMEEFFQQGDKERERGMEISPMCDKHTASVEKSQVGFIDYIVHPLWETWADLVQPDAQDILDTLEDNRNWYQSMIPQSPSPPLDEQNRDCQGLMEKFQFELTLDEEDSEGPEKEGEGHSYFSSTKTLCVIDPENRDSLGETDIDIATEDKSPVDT
Procedure, shortened: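 Cell-based read-out of cAMP via a modified cyclic nucleotide-gated channel and membrane potential dye (535/590 nm) in HEK293 cells expressing PDE4 endogenously. Compounds tested up to 22.9 uM final; 100 uM RO 20-1724 reference.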

[6] = target: Muscarinic acetylcholine receptor M1 (Rattus norvegicus) (UniProt P08482); test: qHTS Assay for Antagonists of Acetylcholine Muscarinic M1 Receptor: Measurement of IP-One Response (AID 944); further: potency means the concentration at half of the fitted maximal effect; nearly all actives have a fitted effect of over 75% in size
UniProt P08482, sequence (P08482 whole entry, looked up): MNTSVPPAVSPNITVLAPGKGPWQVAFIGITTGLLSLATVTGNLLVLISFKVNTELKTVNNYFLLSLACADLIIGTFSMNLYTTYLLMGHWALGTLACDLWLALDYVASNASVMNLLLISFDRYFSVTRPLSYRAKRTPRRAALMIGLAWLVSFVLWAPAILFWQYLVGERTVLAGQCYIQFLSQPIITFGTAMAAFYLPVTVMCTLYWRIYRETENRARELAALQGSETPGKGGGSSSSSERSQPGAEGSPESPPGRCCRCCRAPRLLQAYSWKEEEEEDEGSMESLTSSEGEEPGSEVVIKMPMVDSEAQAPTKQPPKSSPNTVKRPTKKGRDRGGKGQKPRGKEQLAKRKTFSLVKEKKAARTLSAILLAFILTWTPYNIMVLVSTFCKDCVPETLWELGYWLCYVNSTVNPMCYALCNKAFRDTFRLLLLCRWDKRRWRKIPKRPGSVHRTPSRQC

[7] = target: Tyrosine-protein phosphatase non-receptor type substrate 1 (Homo sapiens) + Leukocyte surface antigen CD47 (Homo sapiens) (UniProt P78324+Q08722); test: CD47-SIRPalpha protein protein interaction - Alpha assay qHTS validation (AID 1347059);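 further: bead proximity luminescence from CD47 binding SIRPalpha after compound preincubation with SIRPalpha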; further: potency means the concentration at half of the fitted maximal effect; on activity change, negative = inhibition: on the % scale 0 is the no-effect control and ±100 the full control effect
UniProt P78324, sequence (P78324 whole entry, looked up): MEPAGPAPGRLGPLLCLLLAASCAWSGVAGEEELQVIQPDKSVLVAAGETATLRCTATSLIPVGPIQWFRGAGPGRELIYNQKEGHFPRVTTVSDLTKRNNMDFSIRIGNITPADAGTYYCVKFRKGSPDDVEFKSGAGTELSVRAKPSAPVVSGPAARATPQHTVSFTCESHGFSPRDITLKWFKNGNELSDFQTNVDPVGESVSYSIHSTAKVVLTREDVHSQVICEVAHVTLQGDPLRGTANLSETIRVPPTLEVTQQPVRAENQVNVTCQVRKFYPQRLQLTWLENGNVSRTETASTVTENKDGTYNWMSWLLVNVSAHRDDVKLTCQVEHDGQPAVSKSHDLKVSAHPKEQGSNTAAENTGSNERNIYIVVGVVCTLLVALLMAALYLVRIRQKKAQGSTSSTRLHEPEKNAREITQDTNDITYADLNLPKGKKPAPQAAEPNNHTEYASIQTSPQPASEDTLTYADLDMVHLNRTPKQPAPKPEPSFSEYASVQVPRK
UniProt P78324, sequence (Q08722 whole entry, looked up): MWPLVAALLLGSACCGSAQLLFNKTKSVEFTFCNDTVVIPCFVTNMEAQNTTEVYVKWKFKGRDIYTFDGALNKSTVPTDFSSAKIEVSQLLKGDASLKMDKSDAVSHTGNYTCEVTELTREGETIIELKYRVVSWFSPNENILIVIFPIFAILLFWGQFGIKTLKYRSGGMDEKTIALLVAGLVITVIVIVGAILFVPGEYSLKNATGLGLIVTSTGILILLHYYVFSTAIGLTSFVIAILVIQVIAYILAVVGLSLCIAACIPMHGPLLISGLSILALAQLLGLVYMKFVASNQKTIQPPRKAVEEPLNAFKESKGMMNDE
Procedure, shortened: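 Binding is measured by AlphaScreen proximity: Ni-NTA acceptor beads capture His-CD47, streptavidin donor beads capture biotin-SIRPalpha. Each of three additions (SIRPalpha with compound, CD47, beads) incubates 30 min at room temperature protected from light.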

[8] = target: Thioredoxin reductase 1, cytoplasmic (Rattus norvegicus) (UniProt O89049); test: qHTS Assay for Inhibitors of Mammalian Selenoprotein Thioredoxin Reductase 1 (TrxR1) (AID 488773); settings: Potency: inhibition; further: nearly all actives have a fitted effect of over 40% in size; further: potency means the concentration at half of the fitted maximal effect;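 on activity change, negative = inhibition: drop in NADPH fluorescence over an 8 min run after selenite addition; on the % scale 0 is the no-effect control and ±100 the full control effect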
UniProt O89049, sequence (O89049 whole entry, looked up): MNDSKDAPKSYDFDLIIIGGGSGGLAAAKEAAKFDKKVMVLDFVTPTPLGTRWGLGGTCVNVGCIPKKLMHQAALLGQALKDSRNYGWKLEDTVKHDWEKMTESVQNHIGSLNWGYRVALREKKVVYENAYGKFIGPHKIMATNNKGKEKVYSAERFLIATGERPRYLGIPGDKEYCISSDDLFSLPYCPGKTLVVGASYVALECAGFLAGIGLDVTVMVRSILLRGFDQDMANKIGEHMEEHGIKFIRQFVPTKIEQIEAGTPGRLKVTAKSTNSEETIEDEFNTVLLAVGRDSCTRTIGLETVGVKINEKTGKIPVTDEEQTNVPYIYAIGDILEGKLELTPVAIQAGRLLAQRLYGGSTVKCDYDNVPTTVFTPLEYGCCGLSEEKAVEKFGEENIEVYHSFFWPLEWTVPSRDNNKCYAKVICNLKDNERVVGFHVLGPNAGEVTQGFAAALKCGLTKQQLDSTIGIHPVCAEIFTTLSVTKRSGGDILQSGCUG
Procedure, shortened: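 Steps: enzyme (90 nM) plus NADPH (400 uM final), 5 min at ~22 deg C; compound added, 15 min; selenite (400 uM final) added; fluorescence followed for 8 min. Concentration-response curves derived from the normalized delta values.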

[9] = qHTS Assay for Identification of Small Molecule Agonists for Thrombopoietin (TPO) Signaling Pathway (AID 917); further: potency means the concentration at half of the fitted maximal effect
Procedure, shortened: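 We measured Glycoprotein IIb promoter–luciferase output in IL-3-starved Ba/F3 murine cells expressing the human TPO receptor after 24 hrs at 37 C with compounds and 26 pM TPO.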

[10] = target: D(1A) dopamine receptor (Homo sapiens) (UniProt P21728); test: HTS Assay for Allosteric Agonists of the Human D1 Dopamine Receptor: Primary Screen for Agonists (AID 488981); further: potency means the concentration at half of the fitted maximal effect; on activation: 0% is about no effect
Procedure, shortened: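 Calcium flux in an inducible, force-coupled HEK293 Trex D1 line (overnight at 30 C): agonist mode is the 180 s kinetic read after compound; potentiator mode is the following 180 s read after dopamine at EC20.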

[11] = Validation screen for small molecules that induce DNA re-replication in SW480 colon adenocarcinoma cells (AID 504364); further: potency means the concentration at half of the fitted maximal effect
Procedure, shortened: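 250 cells/well; compound pinned in; 48 hr, 37 C, 5% CO2; Hoechst added, 40 min; nuclear fluorescence imaged, 405 ex / 500-530 em; re-replication scored as increase in high-intensity nuclei.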

[12] = High Content Imaging Cell-Based qHTS for Inhibitors of the mTORC1 Signaling Pathway in MEF Cells (AID 2667); further: potency means the concentration at half of the fitted maximal effect
Procedure, shortened: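 Immunofluorescence for rpS6 phosphorylation in MEFs of Tsc2-/-, p53-/- background rescued with WT Tsc2. Compound exposure lasted 24 hrs. Inhibition was scored against rapamycin-treated control wells.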

[13] = Quantitative high throughput screen for delayed death inhibitors of the malarial parasite plastid, 48 hour incubation (AID 488752); further: potency means the concentration at half of the fitted maximal effect; nearly all actives have a fitted effect of over 65% in size
Procedure, shortened: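 Readout is firefly luciferase luminescence from a reporter integrated into the parasite genome, with lower signal taken as inhibited growth. Infected red cells (0.1% parasitemia, 2% hematocrit final) are cultured with compound for one 48 h cycle at 37 C.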

[14] = target: Peptidyl-prolyl cis-trans isomerase NIMA-interacting 1 (Homo sapiens) (UniProt Q13526); test: qHTS Validation Assay to Find Inhibitors of Pin1 (AID 504536; active means well fitted inhibition curve with a large enough effect in the polarisation, with a control signal flat, not every such curve was filed as active; inconclusive means small, poorly fitted or top-dose-only effect, or effect the other way; the % refers to the polarisation; further: potency means the concentration at half of the fitted maximal effect)
UniProt Q13526, sequence (Q13526 whole entry, looked up): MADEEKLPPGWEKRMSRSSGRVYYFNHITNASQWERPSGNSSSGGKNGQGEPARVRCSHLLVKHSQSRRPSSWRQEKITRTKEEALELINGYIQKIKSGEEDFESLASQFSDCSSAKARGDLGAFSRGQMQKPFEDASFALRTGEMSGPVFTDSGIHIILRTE
Procedure, shortened: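 Fluorescence polarization competition: compounds (titration) displace HiFluor-488-labeled Pin1-1b peptide from Pin1 (0.3 uM final) in pH 7.5 HEPES buffer with DTT, 10 min at room temperature; %Activity normalized to no-enzyme wells, curves fitted.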

[15] = target: Atrial natriuretic peptide receptor 2 (Homo sapiens) (UniProt P20594); test: Natriuretic polypeptide receptor (hNpr2) antagonism - Pilot subtype selectivity assay (AID 1347050; calls by dose curve; further: potency means the concentration at half of the fitted maximal effect)
UniProt P20594, sequence (P20594 whole entry, looked up): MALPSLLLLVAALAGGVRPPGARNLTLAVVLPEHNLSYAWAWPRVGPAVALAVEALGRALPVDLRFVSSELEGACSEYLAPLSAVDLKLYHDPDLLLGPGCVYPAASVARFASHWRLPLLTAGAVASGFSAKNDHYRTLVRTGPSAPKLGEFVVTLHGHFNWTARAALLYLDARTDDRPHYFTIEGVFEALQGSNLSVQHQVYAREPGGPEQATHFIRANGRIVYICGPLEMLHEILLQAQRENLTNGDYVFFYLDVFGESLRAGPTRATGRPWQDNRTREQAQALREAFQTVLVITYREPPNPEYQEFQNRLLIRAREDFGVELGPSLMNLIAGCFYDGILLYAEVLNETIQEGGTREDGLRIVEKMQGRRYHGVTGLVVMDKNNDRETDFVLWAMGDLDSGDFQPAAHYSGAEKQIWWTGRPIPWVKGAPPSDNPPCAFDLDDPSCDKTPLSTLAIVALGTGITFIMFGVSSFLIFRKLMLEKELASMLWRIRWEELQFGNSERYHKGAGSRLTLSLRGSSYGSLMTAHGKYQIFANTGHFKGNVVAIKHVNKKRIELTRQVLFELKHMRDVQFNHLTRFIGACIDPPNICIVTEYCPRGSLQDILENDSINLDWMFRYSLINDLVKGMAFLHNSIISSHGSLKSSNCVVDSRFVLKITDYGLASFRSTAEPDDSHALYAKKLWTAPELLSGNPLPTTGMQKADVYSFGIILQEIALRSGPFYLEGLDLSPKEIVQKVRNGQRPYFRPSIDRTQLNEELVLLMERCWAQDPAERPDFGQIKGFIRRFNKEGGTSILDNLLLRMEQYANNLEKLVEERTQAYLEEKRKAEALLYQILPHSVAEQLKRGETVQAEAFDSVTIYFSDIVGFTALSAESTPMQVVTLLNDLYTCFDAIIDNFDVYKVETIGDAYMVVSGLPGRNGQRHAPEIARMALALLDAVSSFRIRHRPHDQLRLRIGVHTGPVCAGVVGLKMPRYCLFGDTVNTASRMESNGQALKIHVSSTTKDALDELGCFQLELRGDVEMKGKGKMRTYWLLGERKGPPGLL
Procedure, shortened: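 Pilot selectivity screen against hNpr2: HEK293 cGMP-sensor cells are treated with LOPAC1280 compounds, then with hNppC peptide at 1 nM final. The cGMP-driven luminescence change over 20 min at room temperature is the read-out.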

[16] = qHTS Validation Assay to Find Inhibitors of Chronic Active B-Cell Receptor Signaling (AID 485345; active means well fitted curve in the direction sought with a large enough effect in the main read-out, with a control signal flat, not every such curve was filed as active; inconclusive means small, poorly fitted or top-dose-only effect, or effect the other way, or a change in a side signal; inactive means no such curve, though single readings can be large or run the other way;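 further: 0% = untreated basal cells and 100% = 10 µM MG-132 proteasome inhibitor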); settings: ABC-DLBCL cells, chronic BCR signaling reporter; activity change: CBG luciferase, at 46.1 µM (top of the series)
Procedure, shortened: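 Read-out: ratio of filter-corrected green (IkappaBalpha fusion) to red (native) luciferase signal in doxycycline-induced TMD8 cells after 4 h at 37C. Titration spanned 46 uM–3 nM; Data were normalised to basal cells and 10 uM MG-132 wells.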

[17] = Nrf2 qHTS screen for inhibitors: Validation (AID 493153; active means well fitted inhibition curve with a large enough effect in the main read-out, with a control signal flat, not every such curve was filed as active; inconclusive means small, poorly fitted or top-dose-only effect, or effect the other way, or a change in a side signal; inactive means no such curve, though single readings can be large or run the other way; further: potency means the concentration at half of the fitted maximal effect;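 on activity change, negative = inhibition: A549 cells with ARE-driven firefly luciferase reporter reporting Nrf2 activity; % of control where 0% means no effect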)
Procedure, shortened: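 Luminescence from an ARE-firefly luciferase reporter in A549 cells gives Nrf2 inhibition; an earlier CellTiter-Fluor fluorescent read flags cytotoxicity. Cells in 5% FBS OPTI-MEM received compound dilution series for 18-24 h at 37°C.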

[18] = target: M-phase phosphoprotein 8 (Homo sapiens) (UniProt Q99549); test: qHTS Validation Assay for Inhibitors for MPP8 Chromodomain Interactions with Methylated Histone Tails (AID 488949); further: potency means the concentration at half of the fitted maximal effect; nearly all actives have a fitted effect of over 55% in size
Procedure, shortened: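 Disruption of the preformed MPP8–trimethyl-H3K9 peptide complex (both 50 nM, 30 min, RT) is measured after 30 min compound exposure, using AlphaScreen proximity beads; aurintricarboxylic acid titration serves as plate control.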

[19] = qHTS assay to identify inhibitors of the type 1 interferon - major histocompatibility complex class I in skeletal muscle: Counter screen cell viability and HiBit confirmation (AID 1347412); settings: iHSKM muscle cells + IFN-b, HiBiT or CellTiter-Glo, 24 h; Viability; further: potency means the concentration at half of the fitted maximal effect; nearly all actives have a fitted effect of over 60% in size
Procedure, shortened: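 Myoblasts (C25cl48, HLA-B HiBiT) seeded in medium without dexamethasone, IFN-b 4 ng/ml added except unstimulated columns; 1 hr later compounds pinned (12-pt 1:3, top 46 uM final). Incubated 24 hrs, lysed 10 min, luminescence measured.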

[20] = at 7.69 µM (top of the series) unless noted
Tags describe the fitted curve by direction and shape or compound fluorescence and quenching.

## CC(N)Cc1c[nH]c2ccc(O)cc12 (configuration not stated)
[1]
  Potency: inactive
[2]
  Potency: inconclusive: 12.6 µM [inhibitor, single point]
[3]
  Potency: inactive

## CCCN(CCC)[C@@H]1CCc2cccc(O)c2C1
[4]; [20]
  activity change, negative = inhibition: inconclusive: -49.3% [inhibitor] [at 38 µM]
[5]
  Potency: inconclusive: 9.51 µM [activator, partial curve, poor fit]
[6]
  Potency: active: 7.08 µM
[7]
  Potency: inactive

## CCCn1c(=O)c2[nH]c(C3CCCC3)nc2n(CCCOC(=O)c2ccc(S(=O)(=O)F)cc2)c1=O
[5]
  Potency: active: 1.26 µM
[6]
  Potency: inconclusive: 28.2 µM [inhibitor, partial curve, poor fit]
[8]
  Potency: inactive

## NNC(=O)c1ccc(O)cc1
[9]
  Potency: inactive
[6]
  Potency: inconclusive: 31.6 µM [inhibitor, partial curve, poor fit]
[10]
  Potency: inactive
[11]
  Potency: inactive
[7]
  Potency: inactive

## C=CCN1CC[C@]23c4c5ccc(O)c4O[C@@H]2/C(=N/N=C2\CC[C@@]4(O)C6Cc7ccc(O)c8c7[C@@]4(CCN6CC=C)[C@@H]2O8)CC[C@@]3(O)C1C5
[1]
  Potency: inconclusive: 26.1 µM [falling, single point]
[12]
  Potency: inconclusive: 26.1 µM [falling, partial curve, poor fit]
[13]
  Potency: active: 3.29 µM
[14]
  Potency: inconclusive: 23.9 µM [falling, partial curve, poor fit]
[15]
  Potency: inconclusive: 16.5 µM [inhibitor, single point]

## CCCN(CCC)C1Cc2cc(OC)c(OC)cc2C1
[4]; [20]
  activity change, negative = inhibition: inconclusive: -73.3% [inhibitor] [at 38 µM]
[5]
  Potency: inconclusive: 19 µM [activator, single point]
[9]
  Potency: inactive
[6]
  Potency: active: 2.51 µM
[11]
  Potency: inactive

## CCCCCCCCCCCCCC(=O)O[C@@H]1[C@@H](C)[C@@]2(O)[C@@H](C=C(CO)C[C@@]3(O)C(=O)C(C)=C[C@@H]23)C2C(C)(C)[C@@]21OC(C)=O (some centres not stated)
[1]
  Potency: inconclusive: 23.3 µM [falling, single point]
[12]
  Potency: inconclusive: 23.3 µM [falling, single point]
[14]
  Potency: inactive

## CC(N)[C@H](O)c1ccc(O)c(O)c1 (some centres not stated)
[12]
  Potency: inconclusive: 8.26 µM [falling, single point]
[8]
  Potency: active: 11.9 µM
[14]
  Potency: active: 13.5 µM

## CCCN1CCc2cccc3c2[C@H]1Cc1ccc(O)c(O)c1-3
[16]
  activity change: inconclusive: -43.9%
[8]
  Potency: active: 23.8 µM
[17]
  Potency: inactive

## CCS(=O)(=O)Nc1cccc(C(=C2CCCCC2)c2cnc[nH]2)c1
[4]; [20]
  activity change, negative = inhibition: inactive: 4.67% [at 38 µM]
[9]
  Potency: inactive
[18]
  Potency: inconclusive: 44.7 µM [inhibitor, partial curve]

## NC(CCCCCP(=O)(O)O)C(=O)O (configuration not stated)
[11]
  Potency: inactive

## NC(=NCCC[C@H](N)C(=O)O)N[N+](=O)[O-]
[5]
  Potency: inconclusive: 15.1 µM [inhibitor, partial curve, poor fit]

## NC(=O)c1cc(N2CC2)c([N+](=O)[O-])cc1[N+](=O)[O-]
[4]; [20]
  activity change, negative = inhibition: inactive: 1.65% [at 38 µM]
[17]
  Potency: inconclusive: 8.2 µM [inhibitor, partial curve, poor fit]

## CC(=O)OCC1=C(C(=O)O)N2C(=O)[C@@H](NC(=O)CCC[C@@H](N)C(=O)O)[C@H]2SC1
[7]
  Potency: active: 0.414 µM
[3]
  Potency: inconclusive: 25.1 µM [inhibitor, partial curve]

## Cc1c2ccncc2c(C)c2c1[nH]c1ccccc12
[4]; at 17.2 µM (top of the series)
  activity change, negative = inhibition: inconclusive: -85.3% [inhibitor] and inconclusive: -72.9% [inhibitor]
[4]; at 38 µM (top of the series)
  activity change, negative = inhibition: inconclusive: -90.3% [inhibitor]
[9]
  Potency: inconclusive: 10 µM [inhibitor, partial curve]
[6]
  Potency: active: 25.1 µM
[1]
  Potency: inconclusive: 26.1 µM [falling, single point]
[13]
  Potency: active: 1.85 µM
[8]
  Potency: inconclusive: 29.9 µM [inhibitor, partial curve, poor fit]
[11]
  Potency: inconclusive: 9.2 µM [activator, partial curve]
[15]
  Potency: active: 5.21 µM
[19]
  Potency: inconclusive: 44.3 µM [cytotoxic, single point]

## NC(=O)c1ccc(OCC(O)CN2CC=C(c3ccc(F)cc3)CC2)cc1 (configuration not stated)
[16]
  Potency: inactive
[2]
  Potency: inconclusive: 31.6 µM [inhibitor, single point]
[7]
  Potency: inactive

## CCn1cnc2c(Nc3cccc(Cl)c3)nc(N[C@@H]3CCCC[C@@H]3N)nc21
[1]
  Potency: inconclusive: 26.1 µM [falling, single point]
[12]
  Potency: inconclusive: 2.93 µM [falling, full curve, poor fit]
[16]
  activity change: inconclusive: 43.7%
[10]
  Potency: inconclusive: 20 µM [activator, single point]
[11]
  Potency: inconclusive: 2.59 µM [activator, full curve]
[15]
  Potency: inconclusive: 26.1 µM [inhibitor, single point]

From PubChem BioAssay (NCATS)
